Measured values: paper PMC9911399, “Two distinct binding modes provide the RNA-binding protein RbFox with extraordinary sequence specificity”
Substitutions are numbered along the chain they refer to; changes in the protein carry UniProt numbers. The list shows a part of the results.

T1: RBFOX1 RRM RbFoxmut (Fox-RRM*) (Homo sapiens, UniProt Q9NWB1 109-208, R118D;E147R;N151S;E152T)
T1 sequence: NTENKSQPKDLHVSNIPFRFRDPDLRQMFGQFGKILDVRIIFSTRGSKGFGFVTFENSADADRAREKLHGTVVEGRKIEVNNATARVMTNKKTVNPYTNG

B1: CUGCUAU (DNA:RNA)
RNA: GGGAGACCGGAAUUCAGAUUGUCCCUGCUAUUUAAAUCCCGUCGUAGCCACCA
DNA 1: CAATCTGAATTCCGGTCTCCC
DNA 2: TGGTGGCTACGACGGGATT
B2: GAAAGGG (DNA:RNA)
RNA: GGGAGACCGGAAUUCAGAUUGUCCGAAAGGGUUAAAUCCCGUCGUAGCCACCA
DNA 1: CAATCTGAATTCCGGTCTCCC
DNA 2: TGGTGGCTACGACGGGATT
B3: AUACGUG (DNA:RNA)
RNA: B2 RNA with G25A, A26U, A28C, G30U
DNA 1: CAATCTGAATTCCGGTCTCCC
DNA 2: TGGTGGCTACGACGGGATT
B4: UGCCAUG (DNA:RNA)
RNA: B1 RNA with C25U, U26G, G27C, U29A, A30U, U31G
DNA 1: CAATCTGAATTCCGGTCTCCC
DNA 2: TGGTGGCTACGACGGGATT
B5: GCAUCCU (DNA:RNA)
RNA: B2 RNA with A26C, A28U, G29C, G30C, G31U
DNA 1: CAATCTGAATTCCGGTCTCCC
DNA 2: TGGTGGCTACGACGGGATT
B6: UGUUAAC (DNA:RNA)
RNA: B1 RNA with C25U, U26G, G27U, C28U, U29A, U31C
DNA 1: CAATCTGAATTCCGGTCTCCC
DNA 2: TGGTGGCTACGACGGGATT
B7: AACUCCU (DNA:RNA)
RNA: B1 RNA with C25A, U26A, G27C, C28U, U29C, A30C
DNA 1: CAATCTGAATTCCGGTCTCCC
DNA 2: TGGTGGCTACGACGGGATT
B8: UAUUAGG (DNA:RNA)
RNA: B2 RNA with G25U, A27U, A28U, G29A
DNA 1: CAATCTGAATTCCGGTCTCCC
DNA 2: TGGTGGCTACGACGGGATT
B9: UUUCAGU (DNA:RNA)
RNA: B1 RNA with C25U, G27U, U29A, A30G
DNA 1: CAATCTGAATTCCGGTCTCCC
DNA 2: TGGTGGCTACGACGGGATT
B10: CCAUAUC (DNA:RNA)
RNA: B1 RNA with U26C, G27A, C28U, U29A, A30U, U31C
DNA 1: CAATCTGAATTCCGGTCTCCC
DNA 2: TGGTGGCTACGACGGGATT
B11: AACAGAA (DNA:RNA)
RNA: B2 RNA with G25A, A27C, G30A, G31A
DNA 1: CAATCTGAATTCCGGTCTCCC
DNA 2: TGGTGGCTACGACGGGATT
B12: AUCAAUU (DNA:RNA)
RNA: B1 RNA with C25A, G27C, C28A, U29A, A30U
DNA 1: CAATCTGAATTCCGGTCTCCC
DNA 2: TGGTGGCTACGACGGGATT
B13: GAGCAAG (DNA:RNA)
RNA: B1 RNA with C25G, U26A, U29A, U31G
DNA 1: CAATCTGAATTCCGGTCTCCC
DNA 2: TGGTGGCTACGACGGGATT
B14: UGGGGGA (DNA:RNA)
RNA: B2 RNA with G25U, A26G, A27G, A28G, G31A
DNA 1: CAATCTGAATTCCGGTCTCCC
DNA 2: TGGTGGCTACGACGGGATT
B15: UGUGCAU (DNA:RNA)
RNA: B1 RNA with C25U, U26G, G27U, C28G, U29C
DNA 1: CAATCTGAATTCCGGTCTCCC
DNA 2: TGGTGGCTACGACGGGATT
B16: GCGUACU (DNA:RNA)
RNA: B1 RNA with C25G, U26C, C28U, U29A, A30C
DNA 1: CAATCTGAATTCCGGTCTCCC
DNA 2: TGGTGGCTACGACGGGATT
B17: AAAGAAC (DNA:RNA)
RNA: B2 RNA with G25A, A28G, G29A, G30A, G31C
DNA 1: CAATCTGAATTCCGGTCTCCC
DNA 2: TGGTGGCTACGACGGGATT
B18: UAGCUUC (DNA:RNA)
RNA: B1 RNA with C25U, U26A, A30U, U31C
DNA 1: CAATCTGAATTCCGGTCTCCC
DNA 2: TGGTGGCTACGACGGGATT
B19: GGGGGAA (DNA:RNA)
RNA: B1 RNA with C25G, U26G, C28G, U29G, U31A
DNA 1: CAATCTGAATTCCGGTCTCCC
DNA 2: TGGTGGCTACGACGGGATT
B20: UCAGGUA (DNA:RNA)
RNA: B2 RNA with G25U, A26C, A28G, G30U, G31A
DNA 1: CAATCTGAATTCCGGTCTCCC
DNA 2: TGGTGGCTACGACGGGATT
B21: CGGAAAG (DNA:RNA)
RNA: B1 RNA with U26G, C28A, U29A, U31G
DNA 1: CAATCTGAATTCCGGTCTCCC
DNA 2: TGGTGGCTACGACGGGATT
B22: GCUUUCC (DNA:RNA)
RNA: B1 RNA with C25G, U26C, G27U, C28U, A30C, U31C
DNA 1: CAATCTGAATTCCGGTCTCCC
DNA 2: TGGTGGCTACGACGGGATT
B23: GACCGUU (DNA:RNA)
RNA: B2 RNA with A27C, A28C, G30U, G31U
DNA 1: CAATCTGAATTCCGGTCTCCC
DNA 2: TGGTGGCTACGACGGGATT
B24: UUUACAC (DNA:RNA)
RNA: B1 RNA with C25U, G27U, C28A, U29C, U31C
DNA 1: CAATCTGAATTCCGGTCTCCC
DNA 2: TGGTGGCTACGACGGGATT
B25: GGGAUAU (DNA:RNA)
RNA: B1 RNA with C25G, U26G, C28A
DNA 1: CAATCTGAATTCCGGTCTCCC
DNA 2: TGGTGGCTACGACGGGATT
B26: UCGGAGC (DNA:RNA)
RNA: B1 RNA with C25U, U26C, C28G, U29A, A30G, U31C
DNA 1: CAATCTGAATTCCGGTCTCCC
DNA 2: TGGTGGCTACGACGGGATT
B27: ACACUCU (DNA:RNA)
RNA: B1 RNA with C25A, U26C, G27A, A30C
DNA 1: CAATCTGAATTCCGGTCTCCC
DNA 2: TGGTGGCTACGACGGGATT
B28: UCACUAG (DNA:RNA)
RNA: B1 RNA with C25U, U26C, G27A, U31G
DNA 1: CAATCTGAATTCCGGTCTCCC
DNA 2: TGGTGGCTACGACGGGATT
B29: AGCAAUC (DNA:RNA)
RNA: B2 RNA with G25A, A26G, A27C, G29A, G30U, G31C
DNA 1: CAATCTGAATTCCGGTCTCCC
DNA 2: TGGTGGCTACGACGGGATT
B30: UAUUAUC (DNA:RNA)
RNA: B2 RNA with G25U, A27U, A28U, G29A, G30U, G31C
DNA 1: CAATCTGAATTCCGGTCTCCC
DNA 2: TGGTGGCTACGACGGGATT
B31: UUGAAAA (DNA:RNA)
RNA: B1 RNA with C25U, C28A, U29A, U31A
DNA 1: CAATCTGAATTCCGGTCTCCC
DNA 2: TGGTGGCTACGACGGGATT

biological target: T1, RBFOX1 RRM RbFoxmut (Fox-RRM*); assay: EMSA; HiTS-Eq, 1 nM pool, 10 min; buffer printed only for the single-RNA assays: 10 mM Tris pH 7.5, 150 mM NaCl, 3.4 mM EDTA, 0.001% NP-40, 30 C; conditions: tags: His6 N-terminal (pET28a); label: 5' 32P
Outline: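 Purified RbFox RRM (wild type or mutant) was equilibrated for 10 min in 50 µL with 1 nM of a 5′-radiolabelled pool of RNA with 7 randomized nucleotides, its flanks annealed to DNA oligonucleotides, across increasing protein concentrations. Free RNA was separated by 8% native PAGE, excised, reverse-transcribed, PCR-barcoded and sequenced on an Illumina HiSeq 2500. Relative association constants came from read-count changes of each variant against the control reaction, normalised to the cognate motif.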

Row | Binder | binding signal
1 | B1 | 0.121 KA relative to UGCAUGU
2 | B2 | 0.0436 KA relative to UGCAUGU
3 | B3 | 0.132 KA relative to UGCAUGU
4 | B4 | 0.509 KA relative to UGCAUGU
5 | B5 | 0.289 KA relative to UGCAUGU
6 | B6 | 0.083 KA relative to UGCAUGU
7 | B7 | 0.0436 KA relative to UGCAUGU
8 | B8 | 0.0764 KA relative to UGCAUGU
9 | B9 | 0.0662 KA relative to UGCAUGU
10 | B10 | 0.044 KA relative to UGCAUGU
11 | B11 | 0.101 KA relative to UGCAUGU
12 | B12 | 0.0727 KA relative to UGCAUGU
13 | B13 | 0.106 KA relative to UGCAUGU
14 | B14 | 0.102 KA relative to UGCAUGU
15 | B15 | 0.126 KA relative to UGCAUGU
16 | B16 | 0.0925 KA relative to UGCAUGU

Row | Binder | binding signal
17 | B17 | 0.0751 KA relative to UGCAUGU
18 | B18 | 0.0917 KA relative to UGCAUGU
19 | B19 | 0.106 KA relative to UGCAUGU
20 | B20 | 0.144 KA relative to UGCAUGU
21 | B21 | 0.0875 KA relative to UGCAUGU
22 | B22 | 0.0363 KA relative to UGCAUGU
23 | B23 | 0.0865 KA relative to UGCAUGU
24 | B24 | 0.0885 KA relative to UGCAUGU
25 | B25 | 0.118 KA relative to UGCAUGU
26 | B26 | 0.0837 KA relative to UGCAUGU
27 | B27 | 0.0498 KA relative to UGCAUGU
28 | B28 | 0.108 KA relative to UGCAUGU
29 | B29 | 0.0409 KA relative to UGCAUGU
30 | B30 | 0.0758 KA relative to UGCAUGU
31 | B31 | 0.0828 KA relative to UGCAUGU
